Results: the supplement of paper PMC4166925
± gives the standard deviation of the averaged measurements. The full ranking holds about 33,000 sequences; the median of “E-score (dimensionless, -0.5 to 0.5)” is about -0.046, and the highest 2% start at about 0.36. Some of the results follow.

Test system: T1, SpTbr T-box DNA-binding domain (GST fusion)
T1 sequence: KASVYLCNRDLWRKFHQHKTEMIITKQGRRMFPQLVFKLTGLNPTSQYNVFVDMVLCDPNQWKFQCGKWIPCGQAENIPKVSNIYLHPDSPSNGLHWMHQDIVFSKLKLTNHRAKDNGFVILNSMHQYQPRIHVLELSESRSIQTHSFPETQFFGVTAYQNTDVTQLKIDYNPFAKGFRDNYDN
Assay: PBM E-score of 8-mer (E-score (dimensionless, -0.5 to 0.5)); Tbr is Tbrain of the sea star Patiria miniata (Pm) or the sea urchin Strongylocentrotus purpuratus (Sp); higher = stronger binding preference; most listed sequences are background and not binding sites
Details: the construct has about 5 more residues each side
Method in brief: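 Universal Agilent oligonucleotide arrays, made double-stranded by primer extension, were incubated with 200 nM GST-fused Tbr T-box DNA-binding domain in PBS (pH 7.5). The protein was expressed in BL21 E. coli at 20 °C and purified by glutathione affinity chromatography. After scanning and quantification, the Universal PBM Analysis Suite assigned an enrichment E-score to each ungapped 8-mer, averaged over duplicate arrays.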

Point of comparison: AGTATTGA, “PBM E-score of 8-mer” value -0.131 ± 0.045. Against it:
- ACTGACTC — higher, 0.0022 ± 0.0015
- GATCCATA — lower, -0.32 ± 0.047
- ACCCGGTA — higher, -0.0146 ± 0.021
- TGCTTGAA — lower, -0.225 ± 0.023
- GAACGCCA — higher, 0.0516 ± 0.06
- GAGGTTCC — within error, -0.169 ± 0.026
- CCTCTTGC — within error, -0.0125 ± 0.083
- CTGAGGTC — within error, -0.0755 ± 0.025
- CAAGTGAC — higher, 0.339 ± 0.0078
- CTGGGTTA — within error, -0.0751 ± 0.016
- CATAGAGC — higher, -0.0488 ± 0.023
- AATGCACC — higher, -0.0734 ± 0.002
- CTGGAAGC — lower, -0.197 ± 0.0071
- AAAGCTAT — within error, -0.153 ± 0.043
- AATTAACC — within error, -0.178 ± 0.044
- ATAAGAAT — higher, 0.0614 ± 0.076
- ATACGACA — higher, 0.218 ± 0.056
- ACATTACA — higher, 0.0137 ± 0.033
- ACCAGTAA — within error, -0.19 ± 0.069
- AAAGGCCA — within error, -0.115 ± 0.014
- AGCAACGC — higher, 0.221 ± 0.02
- GATGACAA — higher, 0.278 ± 0.026
- AGGCGCTC — within error, -0.0197 ± 0.084
- GGCCTCAC — higher, 0.207 ± 0.0034
- AAACTGTG — higher, 0.277 ± 0.029
- ATCTGCTG — within error, -0.0885 ± 0.046
- ATATGCGA — higher, 0.0823 ± 0.085
- GCGAACAC — higher, 0.318 ± 0.0091
- CCTTGCAG — within error, -0.147 ± 0.017
- TAACTCAA — lower, -0.2219 ± 0.00093
- CTCCCCCA — within error, -0.0779 ± 0.022
- CCAGGGGC — within error, -0.195 ± 0.025
- CTCACCTC — higher, 0.444 ± 0.0047
- ACGGAGGA — higher, -0.045 ± 0.012
- CCACATTA — higher, 0.133 ± 0.051
- CGCGAGTA — higher, 0.292 ± 0.003
- AACGACGG — higher, 0.00558 ± 0.051
- CCTCGGGC — higher, -0.0663 ± 0.004
- CATTGTGA — higher, 0.127 ± 0.0013
- GACCATGA — within error, -0.0389 ± 0.054
- CTAGTCGA — higher, 0.123 ± 0.017
- ACCAGACA — within error, -0.148 ± 0.028
- TGAATCCA — within error, -0.147 ± 0.0028
- CTGAACCA — higher, -0.0511 ± 0.013
- AAAAAGTC — within error, -0.142 ± 0.038
- AACGACAT — higher, 0.0855 ± 0.049
- CAACGAGC — higher, 0.0183 ± 0.021
- GTCCAAAA — within error, -0.17 ± 0.012
- AATCGTGC — higher, 0.182 ± 0.029
- CTTTCAGA — within error, -0.135 ± 0.034
- AAGGCTGC — within error, -0.134 ± 0.011
- TGCAGACA — higher, 0.046 ± 0.017
- CGCCAATA — higher, 0.147 ± 0.062
- ACTTACCT — higher, 0.126 ± 0.041
- CGACGGCG — higher, 0.123 ± 0.027
- AATGCCTA — higher, 0.0332 ± 0.0033
- GAAGTAAA — lower, -0.281 ± 0.027
- CTAGGCGC — higher, 0.0427 ± 0.039
- AGTGAGAC — higher, 0.169 ± 0.04
- TCATGGGA — within error, -0.205 ± 0.051
- CTATACCA — within error, -0.159 ± 0.06
- CGAGTCAG — within error, -0.0765 ± 0.052
- AGTAGTAT — within error, -0.13 ± 0.036
- GGACGTAC — lower, -0.2 ± 0.012
- AACTTGAT — within error, -0.183 ± 0.035
- CACTCCAG — higher, 0.136 ± 0.035
- ACAGCAGC — higher, -0.0141 ± 0.052
- CAGCTGAG — higher, -0.0026 ± 0.071
- CGAATTGA — within error, -0.132 ± 0.024
- GATTGCAC — higher, 0.197 ± 0.015
- CTCCACCC — higher, 0.0474 ± 0.065
- TGTGAAAA — higher, 0.394 ± 0.048
- ACATATAG — within error, -0.142 ± 0.0068
- AAGGAACT — within error, -0.107 ± 0.0035
- GATCAGGA — higher, -0.0573 ± 0.01
- GATAGATA — within error, -0.198 ± 0.11
- AAGATGGT — within error, -0.0834 ± 0.071
- ACAGGACT — within error, -0.178 ± 0.0082
- ACGTAAAG — within error, -0.107 ± 0.031
- CCTCTGCG — within error, -0.0608 ± 0.038
- AAACGACA — higher, 0.158 ± 0.023
- CGATTTTC — higher, 0.0937 ± 0.0036
- ACGCGTCG — higher, 0.2872 ± 0.00053
- CGCGTGTA — higher, 0.0996 ± 0.044
- CCTAGTCC — within error, -0.175 ± 0.036
- TCTGTACA — higher, 0.0624 ± 0.018
- AGATCTGA — within error, -0.0464 ± 0.074
- AAGGCGGG — higher, 0.0185 ± 0.028
- CTCAGCCC — within error, -0.09624 ± 0.00049
- GTCGCTCA — higher, 0.0351 ± 0.12
- TCCTTCAA — within error, -0.229 ± 0.063
- ACGATGTG — higher, 0.258 ± 0.019
- TCCATCCA — within error, -0.126 ± 0.071
- AGCTACGA — higher, -0.00219 ± 0.041
- CATTCTCC — within error, 0.014 ± 0.11
- ACCCCCCG — within error, -0.0791 ± 0.031
- ACTATTTC — within error, -0.145 ± 0.082
- GACTAGTA — within error, -0.075 ± 0.066
- CACTGTCG — higher, 0.238 ± 0.036
- GGCCAGCC — lower, -0.26 ± 0.018
- ACAAGCTC — higher, 0.133 ± 0.034
- CGAAGGAC — within error, -0.0744 ± 0.041
- ATTTATTA — within error, -0.159 ± 0.029
- TTTGAAAA — within error, -0.208 ± 0.085
- AATCAGAA — within error, -0.095 ± 0.048
- ATCTCCAT — within error, -0.0861 ± 0.0063
- AATTTGAG — within error, -0.194 ± 0.037
- GGACTGAC — higher, -0.000535 ± 0.011
- TGGACAAA — within error, -0.0354 ± 0.075
- CCACTGAC — higher, 0.101 ± 0.0056
- CCGTTTCG — within error, -0.141 ± 0.013
- AATTCGAC — within error, -0.0571 ± 0.079
- ACAGTTCG — higher, 0.165 ± 0.021
- CGCACCGA — higher, 0.0672 ± 0.045
- GATATCAC — higher, 0.3 ± 0.021
- CGTTGCAC — higher, 0.094 ± 0.039
- CTTGTGCA — higher, -0.00134 ± 0.032
- AGAGCGTA — within error, -0.278 ± 0.12
- TACGATGA — higher, -0.0506 ± 0.02
- ACCCTACC — higher, -0.026 ± 0.0052
- CCTGTAGC — higher, 0.0675 ± 0.014
- CTCTGGGC — within error, -0.112 ± 0.012
- GCCTTAAC — higher, 0.127 ± 0.045
- AGGGGTAA — within error, -0.151 ± 0.032
- AACACCGG — higher, 0.118 ± 0.015
- CGAGGCGC — higher, 0.283 ± 0.015
- AACCGGGG — within error, -0.0647 ± 0.073
- AATGACGC — higher, 0.242 ± 0.043
- GACGCGCA — within error, -0.0276 ± 0.11
- ATCGAGAG — higher, 0.105 ± 0.035
- AGTGAGCA — higher, 0.116 ± 0.021
- CGACGCGC — higher, 0.176 ± 0.09
- TATCATAA — within error, -0.0751 ± 0.07
- CGAACCGC — within error, -0.091 ± 0.048
- GCGCACAC — higher, 0.161 ± 0.1
- CGCAACGC — higher, 0.0732 ± 0.015
- ACAGTTTA — higher, 0.161 ± 0.046
- CAAGTCAC — higher, 0.3 ± 0.032
- GAGCACCC — within error, -0.116 ± 0.053
- GGGGATAC — within error, -0.0955 ± 0.041
- CAGATTTC — higher, 0.0172 ± 0.052
- CCTAGAGC — within error, -0.0995 ± 0.036
- CACGCCTA — higher, 0.375 ± 0.016
- CGGATTAC — within error, -0.127 ± 0.026
- GGCTTTCA — higher, 0.0117 ± 0.036
- GTTTCACA — higher, 0.38 ± 0.012
- CGTTGGAG — higher, 0.0313 ± 0.053
- ACGTGCCC — within error, -0.0699 ± 0.022
- GCCGCCCA — within error, -0.173 ± 0.052
- GACTGCCA — higher, 0.172 ± 0.0054
- AGTCAAAG — within error, -0.166 ± 0.052
- ACGCACAA — higher, -0.0283 ± 0.052
- AATGAAGG — within error, -0.188 ± 0.031
- CCTCGATA — within error, -0.115 ± 0.0033
- AGTCTGGA — within error, -0.204 ± 0.054
- GCTTCCTA — within error, -0.188 ± 0.024
- AACAAACG — within error, -0.0941 ± 0.046
- TCTCTACA — within error, -0.0865 ± 0.0087
- GCGGTCCC — within error, -0.153 ± 0.022
- TTAGGGAA — within error, -0.198 ± 0.057
- CAGAGAAC — within error, -0.0778 ± 0.035
- AGGCACGA — within error, -0.0701 ± 0.047
- ATGAAAGC — within error, -0.0202 ± 0.081
- GCTTGAAA — within error, -0.115 ± 0.018
- GCGCTTCC — higher, 0.11 ± 0.028
- ATAACGTC — higher, -0.0443 ± 0.024
- GGCAGACA — within error, -0.0836 ± 0.051
- GCCCCAAA — higher, 0.11 ± 0.05
- TCGCTTCA — higher, 0.133 ± 0.037
- CTTTGTCA — higher, 0.215 ± 0.029
- ACCGCAAG — higher, 0.0125 ± 0.0041
